Test results from the RNAGym collection of RNA variant scans (doi:10.7554/elife.90254).
Read counts are not given, so values of variants with three or more changes are uncertain.

B1: LINE1-mini (parent)
chain: GGCAGAGCUCAACACAGCGUGGCAAAGUGGCUGUGGCUAGACUGCC

Variants of: B1
Assay: self-cleavage, relative activity (ratio to wild type); higher = more cleavage; in vitro, sequencing; the parent is a self-cleaving ribozyme

Variant	self-cleavage
GGCAGAGCUCAUCACAGCGUGGAAAAGAGGCUGUGGCUAGACUGCC [A12U C23A U28A]	0.07
GGCAGAGCUCAACACAGCGUCGCAAAGUAACUGUGGCUAGACUGCC [G21C G29A G30A]	0.61
GGCAGAGCUCAACACAGAGUGGCAAAGUAGCUGUGGCUAGAGCGAC [C18A G29A C42G U43C C45A]	0.01
GGCAGAGGUCAACACAGCGUGGCAAAGUGGCUGUGGCUAGAGUACC [C8G C42G G44A]	0.01
GUCAGAGCUCAACCCAGAGUAGCAAAGUGGCAGUGGCUAGACUGCC [G2U A14C C18A G21A U32A]	0.01
GGCCUCGCUCAACACAGCGUGGCAAAGUGGCUGAGGCUAGACUGCC [A4C G5U A6C U34A]	0
GACAGAAUACACCACAGCGUGGCAAAGUGGCUGUGGCUAAGUUGCC [G2A G7A C8U U9A A12C G40A A41G C42U]	0.05
GGCAGACCUCAACACAGCGUGGCAAAGUGACUGUGGCUGGACUGCC [G7C G30A A39G]	0.03
GGCAGAGCUCAACACAGUGUGUCAAAGUGGCUGUGGCUAGAGUGCC [C18U G22U C42G]	0.07
GGCAGAGCUCCACACAGCGUGGCAAAGUGACUGUGGCGAGACUGCC [A11C G30A U38G]	0
GGCAAAGCUCAACACAGAGUGGAAAAGUGGCUGUGGCUAGACUGCA [G5A C18A C23A C46A]	0.08
GGCUGAGCUCAACACAGCGUGGCAAAGUGGCUGUGGCUAUACUGGC [A4U G40U C45G]	0.8
GGCAUAGCUCAACAAAGCAUGGGAAAGUGGCUGUGGCUAGCAUGCA [G5U C15A G19A C23G A41C C42A C46A]	0.06
GGCAGGCAUCAACACAGCGUGGCAAAGUGACUGUGGCUAGACUGCC [A6G G7C C8A G30A]	1.05
GGCAGACCUCUACACACCGUGGCAAGGUGGCUCUGGCUAGACUGCC [G7C A11U G17C A26G G33C]	0.02
GGCAGAGCUCAACACAGCGUGGCUAAGUGGCUGUAACUAGACUGCU [A24U G35A G36A C46U]	0.04
GGCAGAGCGCAGAACAGCGUGGCAAAGUUGCUGUGGCUAGACUGCU [U9G A12G C13A G29U C46U]	0.02
GGCAGAGCUCAAGAGAGCGUGACAAAGUGGCUGUCGCUAGACUGCC [C13G C15G G22A G35C]	0.05
GGCAGAGCUGAACACAGCGUGGUAAAGUGGCUGUGGCUAAACUGUG [C10G C23U G40A C45U C46G]	0.02

Variant	self-cleavage
GGCAGAGCUCAACACAGCGUGGUAAAGUGACGGUCGCUAGACUGCC [C23U G30A U32G G35C]	0.04
GGCAGAGCUCAACACAGCGUAGCCAAGUGGCUGUGGCAAGACUGCC [G21A A24C U38A]	0.76
GGCAGAGCUCAACACAGCGGGACAAACAGCCUGUGGCUAGACUGCC [U20G G22A G27C U28A G30C]	1.62
UGCAGAACUCAACACAGCGUGGCAAAGUGGCUGUUGCUAGACUGCC [G1U G7A G35U]	0.04
GGCAGAGCUCAACACAGCGUGGCAAGGUGGCUGUGGCGAGACCGCC [A26G U38G U43C]	0.03
GGCAGAGCUCUACACAGCGUGACAAAGUAGCUGUGGCUAGACUGCC [A11U G22A G29A]	0.03
GGCAGAGCUCAACUCGGCGUGACAAAGUGGCUGUGUCUAGACCGCC [A14U A16G G22A G36U U43C]	0.02
GGCAGAGCUCAACACAGCGUGGAAAAGUGGCUGCGGCUAGAGUGCC [C23A U34C C42G]	0.09
GGCAGAGCUUAACACAGCGUGGCAAAGUGGCUGUGGCUAGACUGUU [C10U C45U C46U]	0.15
GGAAGAGCUCAACACAACGUGGCAAAGUGGCUGGGGCUAGACUGCC [C3A G17A U34G]	0.07
GGCAGAGCACAACACCGAGUGGCUAAGUGGCUGUGGCUAGACUGCC [U9A A16C C18A A24U]	0.29
GCCAGAGCUCUACAAAGCUUGGCAAAGUGGCUGUGCCUAGACUGCC [G2C A11U C15A G19U G36C]	0.01
GGCAGAGCUCAACACGGCGUGGGAAAGUGGCUGUGGAUAGACUGCC [A16G C23G C37A]	0.05
GGCAGAUCUCAACACAACGUGGCAAAGUGACUGAGGCUAGACUGCG [G7U G17A G30A U34A C46G]	0.04
GGCAGAGCUUUACACAGCGUGGCAAAGUGGUAGUGGCUAGACUGCU [C10U A11U C31U U32A C46U]	0.02
GGCAGAUCUCAACACCCCGUGGCAAAGUGGCUGUGGCUAGACUUCC [G7U A16C G17C G44U]	0.06
GGCAGAGCUCCACACAGCGUGGCAAAGUGAAUGUGGCUAGACUGCC [A11C G30A C31A]	0.03
GGCAGAGCUCUACAUAGCCUGGCAAAGUGGCUGUGGCUAGACUGAC [A11U C15U G19C C45A]	0.01
CGCAGGGCUCAAAACAGCGUGGCAAAGUGGCCGUGGCUAGACUGCC [G1C A6G C13A U32C]	0

Variant	self-cleavage
GGCAGAGCUCCACACAUGGUGGCAAAGUGGCUGUGGGUAGACUGCC [A11C G17U C18G C37G]	0.02
GGCAGAGCUCAACACAGCGUGGCACAGUGGCUGUGGCUAAACUGCA [A25C G40A C46A]	0.06
GGCAGAUUUCUACACAGCGUGGCAAAGUGGCUUUGGCUAGACUGCC [G7U C8U A11U G33U]	0.03
GCCAGAGCUCAACGCAGCGUGGCAAAGUGGCUGUGGCUAGACUGCG [G2C A14G C46G]	0.48
GGCAGAGCUCAACACAGCGUGGCAAUGAGGCUGUGGCUAGAAUGCC [A26U U28A C42A]	0.07
GGAAUAGCUCAACACAGCGUGGCAAAGUGGCUGUGGCAAGACUGCC [C3A G5U U38A]	0.18
GGCAGAGCUCAACACAGCGUGGCAUAGAGGCUGUGGCUAGACUGGC [A25U U28A C45G]	0.04
GGCAGAGCUCAACACUGCGUGCCAAAGUGGCUGUGGCUUGACUGCC [A16U G22C A39U]	0.08
GGUAGAGCUCAUCACAGCGUGGCAAAGUGGCUGUGGCUAGCCUGCC [C3U A12U A41C]	0.03
GGCAGAGCUCAACACAGCGUGGCAACGUGGCUGUGGGUAGACUGUC [A26C C37G C45U]	0.15
GGCAGAGCUCAACACUGUGUGGCAAUGUGGCUGUGGCUAGACUGCC [A16U C18U A26U]	0.06
GGCAGAGCUCAACACAGCGUUGCAGAGUGGCUGUGGAUAGGCUGCC [G21U A25G C37A A41G]	0.04
GGCGGAGCUCAACACAGCGUGGCACAGUGGCUAUGGCUAGACUGCC [A4G A25C G33A]	0.05
GGCAGAGCUCAUCACAGCGUGGCAAAGGGGCUGUGGCUCGACUGCC [A12U U28G A39C]	0.07
GGCAGAGCUCAACACACCCUGGCAAAGUGGCUGUGGCUAAACCGCC [G17C G19C G40A U43C]	0.02
GGCUGGGCUCAACACAGCGUGGCAAAGUGGCUGUGGCUAUACUGCC [A4U A6G G40U]	0.11
GACAGAGCUCAACAAAGUGUCGCAAAGUGGCUGUGGCUAGACUGCC [G2A C15A C18U G21C]	0.24
GGCAGAGCUCAACACAGAGUGGCAAAGUGGCUCUGGCUAGAGUGCC [C18A G33C C42G]	0.01
